Measurements as given in PMC3276564.
Where two headings read alike, the source gives them in different places. These are yes or no findings as the source states them, for the method shown. For some assays here: In cells and extracts the contact can be indirect. Some results given as binding are weak or reduced against the parent protein; the word gives no strength. For some assays here: Tags and fused reporters may be left off the sequences shown.

Sequences of proteins named here, by UniProt entry; tags and fusion partners are left off. Residues count along the entry.
UniProt P17460, residues 1-250: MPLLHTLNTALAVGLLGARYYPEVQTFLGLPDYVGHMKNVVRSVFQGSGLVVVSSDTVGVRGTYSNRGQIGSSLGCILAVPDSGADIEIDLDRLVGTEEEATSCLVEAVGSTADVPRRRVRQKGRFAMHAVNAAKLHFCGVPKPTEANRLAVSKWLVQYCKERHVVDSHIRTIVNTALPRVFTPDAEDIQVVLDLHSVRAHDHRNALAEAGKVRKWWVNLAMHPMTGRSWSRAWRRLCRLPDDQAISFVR
UniProt Q9IMM4: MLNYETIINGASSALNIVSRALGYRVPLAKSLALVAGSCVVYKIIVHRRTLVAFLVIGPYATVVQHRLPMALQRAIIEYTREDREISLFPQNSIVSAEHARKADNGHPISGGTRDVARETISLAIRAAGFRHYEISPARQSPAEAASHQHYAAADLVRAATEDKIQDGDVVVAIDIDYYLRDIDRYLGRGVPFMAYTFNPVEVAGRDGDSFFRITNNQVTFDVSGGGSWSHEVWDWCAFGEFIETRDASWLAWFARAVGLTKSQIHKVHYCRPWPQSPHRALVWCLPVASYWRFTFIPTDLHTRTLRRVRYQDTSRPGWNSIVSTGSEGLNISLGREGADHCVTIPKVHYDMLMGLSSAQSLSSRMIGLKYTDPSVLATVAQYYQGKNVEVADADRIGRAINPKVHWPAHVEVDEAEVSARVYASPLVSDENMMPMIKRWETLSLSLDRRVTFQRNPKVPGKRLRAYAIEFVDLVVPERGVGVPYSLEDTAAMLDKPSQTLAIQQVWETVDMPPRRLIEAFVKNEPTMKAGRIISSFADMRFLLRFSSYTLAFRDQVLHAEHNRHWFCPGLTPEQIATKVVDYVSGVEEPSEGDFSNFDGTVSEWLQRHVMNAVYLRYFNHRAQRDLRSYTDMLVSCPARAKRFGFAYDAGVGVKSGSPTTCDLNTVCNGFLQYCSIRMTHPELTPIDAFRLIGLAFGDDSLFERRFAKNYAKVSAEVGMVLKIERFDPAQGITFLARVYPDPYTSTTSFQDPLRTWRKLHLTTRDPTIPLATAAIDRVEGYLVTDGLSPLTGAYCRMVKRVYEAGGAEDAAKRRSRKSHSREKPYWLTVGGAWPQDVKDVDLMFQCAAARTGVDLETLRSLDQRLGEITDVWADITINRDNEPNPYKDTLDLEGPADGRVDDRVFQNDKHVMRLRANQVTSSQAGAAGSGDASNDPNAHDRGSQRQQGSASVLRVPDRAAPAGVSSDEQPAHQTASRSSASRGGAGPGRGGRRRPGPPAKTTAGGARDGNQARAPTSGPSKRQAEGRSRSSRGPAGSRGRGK
UniProt P14832: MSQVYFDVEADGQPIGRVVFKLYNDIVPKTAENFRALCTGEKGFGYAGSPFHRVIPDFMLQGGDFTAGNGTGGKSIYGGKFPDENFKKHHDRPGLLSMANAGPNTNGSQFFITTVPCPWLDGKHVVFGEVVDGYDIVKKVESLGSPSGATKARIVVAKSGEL
UniProt P20081: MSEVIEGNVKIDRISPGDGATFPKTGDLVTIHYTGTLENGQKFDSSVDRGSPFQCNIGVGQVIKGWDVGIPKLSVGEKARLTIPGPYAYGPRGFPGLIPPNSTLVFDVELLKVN
UniProt P32472, residues 18-135: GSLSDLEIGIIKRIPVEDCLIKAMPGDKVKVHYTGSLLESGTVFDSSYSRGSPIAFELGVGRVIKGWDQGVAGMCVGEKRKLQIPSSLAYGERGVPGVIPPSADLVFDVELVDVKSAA
UniProt P25334, residues 21-318: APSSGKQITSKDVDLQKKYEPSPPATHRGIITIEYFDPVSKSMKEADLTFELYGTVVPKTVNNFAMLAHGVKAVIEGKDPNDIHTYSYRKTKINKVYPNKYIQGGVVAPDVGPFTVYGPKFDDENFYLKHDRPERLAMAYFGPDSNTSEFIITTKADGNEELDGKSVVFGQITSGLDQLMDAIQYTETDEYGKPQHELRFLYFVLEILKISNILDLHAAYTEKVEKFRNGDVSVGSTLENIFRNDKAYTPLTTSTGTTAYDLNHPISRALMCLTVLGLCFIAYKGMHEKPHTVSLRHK
UniProt P35176, residues 23-225: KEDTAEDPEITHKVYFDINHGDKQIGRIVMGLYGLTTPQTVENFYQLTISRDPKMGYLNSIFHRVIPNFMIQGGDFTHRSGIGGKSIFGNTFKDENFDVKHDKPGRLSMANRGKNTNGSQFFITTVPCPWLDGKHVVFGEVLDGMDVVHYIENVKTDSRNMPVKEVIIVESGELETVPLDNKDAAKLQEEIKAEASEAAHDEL
UniProt P25719, residues 21-182: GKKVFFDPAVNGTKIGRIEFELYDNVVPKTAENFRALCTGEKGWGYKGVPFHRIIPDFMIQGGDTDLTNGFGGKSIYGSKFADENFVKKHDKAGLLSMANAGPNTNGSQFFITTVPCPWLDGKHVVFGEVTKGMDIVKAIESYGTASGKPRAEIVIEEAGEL
UniProt P53691: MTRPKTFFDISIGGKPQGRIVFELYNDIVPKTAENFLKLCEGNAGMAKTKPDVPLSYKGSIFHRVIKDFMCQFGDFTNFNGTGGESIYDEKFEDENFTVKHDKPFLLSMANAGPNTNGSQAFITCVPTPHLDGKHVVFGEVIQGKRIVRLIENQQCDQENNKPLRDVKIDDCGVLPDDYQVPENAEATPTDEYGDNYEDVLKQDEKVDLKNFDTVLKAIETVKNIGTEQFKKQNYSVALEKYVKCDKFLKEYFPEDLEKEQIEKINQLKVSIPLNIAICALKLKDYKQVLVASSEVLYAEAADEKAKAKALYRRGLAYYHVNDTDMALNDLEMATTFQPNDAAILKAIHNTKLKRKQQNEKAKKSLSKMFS
UniProt P23285, residues 21-205: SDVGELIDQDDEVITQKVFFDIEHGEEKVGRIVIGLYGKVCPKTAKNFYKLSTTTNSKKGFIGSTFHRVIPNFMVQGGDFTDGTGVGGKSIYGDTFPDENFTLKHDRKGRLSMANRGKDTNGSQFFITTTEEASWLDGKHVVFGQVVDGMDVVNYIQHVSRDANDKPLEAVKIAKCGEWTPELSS
UniProt P53728: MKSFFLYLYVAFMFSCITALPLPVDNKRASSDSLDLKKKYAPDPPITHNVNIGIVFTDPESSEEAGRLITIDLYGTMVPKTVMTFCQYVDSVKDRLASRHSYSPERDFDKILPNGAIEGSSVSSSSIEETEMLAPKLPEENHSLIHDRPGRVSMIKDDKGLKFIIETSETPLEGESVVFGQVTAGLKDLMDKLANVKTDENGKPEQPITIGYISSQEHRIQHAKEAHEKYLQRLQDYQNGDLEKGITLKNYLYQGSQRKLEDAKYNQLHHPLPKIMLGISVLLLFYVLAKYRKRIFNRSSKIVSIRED

Key:
[1] = target: T1, TBSV p33 replication protein (split-ubiquitin bait, pGAD-BT2-N-His33) (Tomato bushy stunt virus) (UniProt P15962); assay: two-hybrid; split-ubiquitin membrane yeast two-hybrid (MYTH, Dualmembrane kit3); viral replication protein as bait co-expressed with NubG prey in yeast NMY51; growth on Trp-/Leu-/His-/Ade- plates
T1 sequence: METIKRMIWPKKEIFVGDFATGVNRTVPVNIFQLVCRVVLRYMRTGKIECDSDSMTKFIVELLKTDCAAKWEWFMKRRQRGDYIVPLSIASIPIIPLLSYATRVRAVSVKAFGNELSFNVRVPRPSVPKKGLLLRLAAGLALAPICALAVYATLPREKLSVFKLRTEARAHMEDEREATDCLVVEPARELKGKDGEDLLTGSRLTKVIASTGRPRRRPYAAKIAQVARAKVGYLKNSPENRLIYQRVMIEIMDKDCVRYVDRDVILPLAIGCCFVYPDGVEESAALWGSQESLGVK

[2] = target: p28 replication protein of Turnip crinkle virus (TCV) (MYTH bait) (Turnip crinkle virus) (UniProt P17460); assay: as above
[3] = target: protein A of Nodamuravirus (NoV) (MYTH bait) (Nodamura virus) (UniProt Q9IMM4); assay: as above
[4] = target: T2, MBP-tagged TBSV p33 (Tomato bushy stunt virus) (UniProt P15962); assay: pull-down; MBP-tagged p33 derivatives from E. coli immobilised on amylose columns; lysate of BY4741 yeast with FLAG-tagged cyclophilin (200 mM NaCl, 0.1% NP40, RNase A) incubated 3 h at 4°C; washed with 100 mM NaCl buffer; eluted with maltose; anti-FLAG Western blot; only the target purified
T2 sequence: T1 sequence

[5] = target: T1, TBSV p33 replication protein (split-ubiquitin bait, pGAD-BT2-N-His33) (Tomato bushy stunt virus); assay: two-hybrid; split-ubiquitin membrane yeast two-hybrid (MYTH, Dualmembrane kit3); viral replication protein as bait co-expressed with NubG prey in yeast NMY51; growth on Trp-/Leu-/His-/Ade- plates; remark: listed apart in the source
[6] = target: p28 replication protein of Turnip crinkle virus (TCV) (MYTH bait) (Turnip crinkle virus) (UniProt P17460); assay: as above; remark: listed apart in the source
[7] = target: protein A of Nodamuravirus (NoV) (MYTH bait) (Nodamura virus) (UniProt Q9IMM4); assay: as above; remark: listed apart in the source
[8] = target: T2, MBP-tagged TBSV p33 (Tomato bushy stunt virus); assay: pull-down; MBP-tagged p33 derivatives from E. coli immobilised on amylose columns; lysate of BY4741 yeast with FLAG-tagged cyclophilin (200 mM NaCl, 0.1% NP40, RNase A) incubated 3 h at 4°C; washed with 100 mM NaCl buffer; eluted with maltose; anti-FLAG Western blot; only the target purified; remark: listed apart in the source

Molecule: Cpr1p cyclophilin (MYTH prey) (from UniProt P14832 1-162)
- binding [1]: binds
- binding [2]: binds
- binding [3]: binds

Molecule: Fpr1p (MYTH prey) (from UniProt P20081 1-114)
- binding [1]: binds

Molecule: Fpr2p (MYTH prey) (from UniProt P32472 18-135)
- binding [1]: no binding

Molecule: Cpr4p cyclophilin (MYTH prey) (from UniProt P25334 21-318)
- binding [1]: no binding

Molecule: Cpr5p cyclophilin (MYTH prey) (from UniProt P35176 23-225)
- binding [1]: no binding

Molecule: Cpr3p cyclophilin (MYTH prey) (from UniProt P25719 21-182)
- binding [1]: binds
- binding [2]: binds
- binding [3]: binds

Molecule: FLAG-tagged Cpr6p (from UniProt P53691 1-371)
- binding [4]: binds

Molecule: Cpr2p cyclophilin (MYTH prey) (from UniProt P23285 21-205)
- binding [1]: no binding

Molecule: Cpr8p cyclophilin (MYTH prey) (from UniProt P53728 1-308)
- binding [1]: no binding

Molecule: Cpr6p Cyp40-like cyclophilin (MYTH prey) (from UniProt P53691 1-371)
- binding [1]: binds
- binding [2]: binds
- binding [3]: binds

B1: Cpr7p Cyp40-like cyclophilin (MYTH prey, pPRN-N-CPR7) (protein, UniProt P47103 1-393)
chain: MIQDPLVYLDISIDKKPIGRIVCKLFREKAPKTTENFYKLCAGDVKSPLKDQQYLSYKGNGFHRVVKNFMIQAGDIVFGTQKDSSSSSVGKGGCSIYADKEEVKTDDESFCYGNFEDENLGEFVEPFTLGMANLGSPNTNNSQFFITTYAAPHLNGKHSIFGQVVHGKSVVRTIENCRVDSDGVPESDVRISDCGVWEKTMGVPLYNASNDQIGGDVYEEYPDDDTHFGDDDFGKALEAANIIKESGTLLFKKKDYSNAFFKYRKSLNYINEYMPEPDVDKERNIQFINLKMKIYLNLSLVLFNLERYDDAIMYATYLLEMDNVPNRDQAKAYYRRGNSYLKKKRLDEALQDYIFCKEKNPDDEVIEQRIEYVNRLIEENKEKTRKNISKFFS
- binding [5]: binds
- binding [6]: binds
- binding [7]: binds

B2: FLAG-tagged Cpr7p (pESC-His-CupFlag-CPR7) (protein, UniProt P47103 1-393)
chain: B1 chain
- binding [8]: binds
